# Several values for one entry are separate records, joined by “and”; a condition that tells them apart may be missing. Identical values can stand only once. Activity calls are given as the source filed them. Unless noted, the call rests on the fitted dose curve; in most records, active means well fitted curve in the direction sought with a large enough effect in the repeat runs; inconclusive means weak or mixed curves; inactive means no such curve, though single readings can be large; an effect the other way counts as inactive or inconclusive.
# What was measured:
# [1] = qHTS assay for small molecules that induce genotoxicity in human embryonic kidney cells expressing luciferase-tagged ATAD5 - cell viability (AID 651634; calls by dose curve; further: nearly all actives have a fitted effect of over 25% in size)
# How it was run: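 After 15.5 hr incubation with compound at 37C, 5% CO2, HEK293T ATAD5-luciferase cells received CellTiter-Fluor reagent; fluorescence intensity was quantified following 30 min at 37C.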
# [2] = biological target: Aromatase (Homo sapiens) (UniProt P11511); assay: qHTS assay to identify aromatase inhibitors (AID 743083); further: nearly all actives have a fitted effect of over 55% in size
# [3] = biological target: Nuclear receptor subfamily 1 group I member 2 (Homo sapiens) (UniProt O75469); assay: Human pregnane X receptor (PXR) activation by small molecules, qHTS assay (AID 1346985); further: nearly all actives have a fitted effect of over 40% in size
# How it was run: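 DPX-2 cells (HepG2 co-transfected with a PXR response element and a CYP3A4-promoter luciferase construct) were seeded at 2,000 per well, rested 5 hr at 37C, then exposed to DMSO-dissolved compounds for 24 hr. Activation was read as luciferase luminescence.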
# [4] = qHTS assay to identify small molecule antagonists of the glucocorticoid receptor (GR) signaling pathway - cell viability counter screen (AID 720693); conditions: GR-bla HeLa viability, CellTiter-Glo luminescence, 18 h, with 5 nM dexamethasone present; series mostly up to 58.5 µM; further: nearly all actives have a fitted effect of over 55% in size
# [5] = biological target: Androgen receptor (Homo sapiens) (UniProt P10275); assay: qHTS assay to identify small molecule antagonists of the androgen receptor (AR) signaling pathway (AID 743035; active means well fitted inhibition curve with a large enough effect in the signal ratio in the repeat runs, not every such curve was filed as active; inconclusive means weak or mixed curves, or effect the other way; inactive means no such curve, though single readings can be large or run the other way; the % refers to the signal ratio); conditions: HEK293 AR-UAS-bla, R1881-stimulated, beta-lactamase FRET, 16 h; series mostly up to 58.5 µM
# How it was run: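 Quantitative HTS of the Tox21 10K library used HEK293 AR-UAS-bla cells stimulated with R1881 alongside compound for 16 h at 37C, followed by beta-lactamase FRET detection (LiveBLAzer B/G, 2 h, RT).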
# [6] = biological target: Androgen receptor (Homo sapiens) (UniProt P10275); assay: qHTS assay to identify small molecule agonists of the androgen receptor (AR) signaling pathway (AID 743036; active means well fitted activation curve with a large enough effect in the signal ratio in the repeat runs, with a control signal flat, not every such curve was filed as active; inconclusive means weak or mixed curves, or effect the other way; inactive means no such curve, though single readings can be large or run the other way; the % refers to the signal ratio); conditions: HEK293 AR-UAS-bla GripTite, beta-lactamase FRET ratio, 16 h; activation: at 62.4 µM (top of the series) unless noted
# How it was run: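 Cell-based FRET reporter assay: HEK293 line with a UAS-beta-lactamase construct, compounds added in DMSO, 16 h exposure at 37C, then 2 h substrate step at room temperature and fluorescence intensity read.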
# [7] = biological target: Estrogen receptor (Homo sapiens) (UniProt P03372); assay: qHTS assay to identify small molecule agonists of the estrogen receptor alpha (ER-alpha) signaling pathway (AID 743075; calls by dose curve;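 further: HEK293 GripTite cells with ER-alpha and UAS-driven beta-lactamase reporter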); conditions: HEK293 ER-alpha-UAS-bla, beta-lactamase FRET ratio, 18 h; activation: at 70.1 µM (top of the series)
# [8] = biological target: Glucocorticoid receptor (Homo sapiens) (UniProt P04150); assay: qHTS assay to identify small molecule agonists of the glucocorticoid receptor (GR) signaling pathway (AID 720691; active means well fitted activation curve with a large enough effect in the signal ratio in the repeat runs, not every such curve was filed as active; inconclusive means weak or mixed curves, or effect the other way; inactive means no such curve, though single readings can be large or run the other way; the % refers to the signal ratio); conditions: GR-bla HeLa, beta-lactamase reporter ratio, 18 h; activation: at 62.4 µM (top of the series) unless noted
# How it was run: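 Cells: GR-bla HeLa, endogenous GR with stably integrated GRE-beta-lactamase reporter. Treatment 18 h, 37 C, compounds delivered in DMSO. Detection via LiveBLAzer B/G FRET substrate, 2 h RT, fluorescence intensity.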
# [9] = biological target: Aryl hydrocarbon receptor (Homo sapiens) (UniProt P35869); assay: qHTS assay to identify small molecule that activate the aryl hydrocarbon receptor (AhR) signaling pathway (AID 743085); further: nearly all actives have a fitted effect of over 15% in size;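 on activation: HG2L7.5c1 human HepG2 liver cells with stably integrated DRE-driven firefly reporter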
# How it was run: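 AhR agonist activity is inferred from enhanced light output of a DRE-controlled firefly luciferase reporter in HepG2 cells, measured with ONE-Glo following 24 h treatment at 37C.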
# Potency means the concentration at half of the fitted maximal effect; tags describe the fitted curve by direction and shape or compound fluorescence and quenching.
# Sequence of UniProt P11511 (P11511 whole entry, looked up): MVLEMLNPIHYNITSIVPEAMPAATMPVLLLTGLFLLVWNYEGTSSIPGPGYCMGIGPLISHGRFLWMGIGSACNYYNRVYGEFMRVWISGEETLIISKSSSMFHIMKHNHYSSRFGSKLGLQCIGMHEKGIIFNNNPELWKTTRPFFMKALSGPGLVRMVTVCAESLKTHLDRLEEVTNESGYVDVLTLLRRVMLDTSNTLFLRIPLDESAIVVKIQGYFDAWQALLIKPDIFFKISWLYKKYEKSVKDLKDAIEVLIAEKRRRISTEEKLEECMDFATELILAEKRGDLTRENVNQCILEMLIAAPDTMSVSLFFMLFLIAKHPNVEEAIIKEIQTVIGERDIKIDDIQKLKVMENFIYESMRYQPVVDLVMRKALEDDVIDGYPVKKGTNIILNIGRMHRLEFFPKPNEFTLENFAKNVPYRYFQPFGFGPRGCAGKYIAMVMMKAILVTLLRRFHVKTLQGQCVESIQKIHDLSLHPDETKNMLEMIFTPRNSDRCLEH
# Sequence of UniProt P10275 (P10275 whole entry, looked up): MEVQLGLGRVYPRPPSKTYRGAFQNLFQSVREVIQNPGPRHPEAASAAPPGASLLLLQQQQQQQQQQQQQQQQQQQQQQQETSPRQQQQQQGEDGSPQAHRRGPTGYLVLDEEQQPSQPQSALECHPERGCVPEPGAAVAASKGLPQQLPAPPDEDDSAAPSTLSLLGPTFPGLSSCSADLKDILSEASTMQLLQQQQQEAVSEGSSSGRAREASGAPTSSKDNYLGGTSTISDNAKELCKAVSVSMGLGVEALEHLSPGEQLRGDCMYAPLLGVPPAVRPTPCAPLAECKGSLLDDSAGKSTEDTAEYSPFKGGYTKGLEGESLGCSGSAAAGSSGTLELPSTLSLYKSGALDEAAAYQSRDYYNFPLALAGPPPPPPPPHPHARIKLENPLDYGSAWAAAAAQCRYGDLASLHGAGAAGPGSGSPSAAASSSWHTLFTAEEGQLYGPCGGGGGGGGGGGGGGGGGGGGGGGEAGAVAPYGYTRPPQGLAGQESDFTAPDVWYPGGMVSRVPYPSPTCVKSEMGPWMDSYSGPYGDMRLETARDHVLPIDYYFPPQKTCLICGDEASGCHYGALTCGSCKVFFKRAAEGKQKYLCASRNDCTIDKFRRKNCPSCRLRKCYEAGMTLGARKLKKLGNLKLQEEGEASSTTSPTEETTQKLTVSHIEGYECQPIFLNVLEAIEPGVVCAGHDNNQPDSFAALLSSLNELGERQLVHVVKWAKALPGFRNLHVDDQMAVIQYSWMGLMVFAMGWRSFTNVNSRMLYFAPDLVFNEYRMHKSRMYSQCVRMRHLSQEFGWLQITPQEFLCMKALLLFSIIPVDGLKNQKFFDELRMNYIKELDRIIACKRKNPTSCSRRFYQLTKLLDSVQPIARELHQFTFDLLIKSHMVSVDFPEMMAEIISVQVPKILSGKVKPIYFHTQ
# Sequence of UniProt P03372 (P03372 whole entry, looked up): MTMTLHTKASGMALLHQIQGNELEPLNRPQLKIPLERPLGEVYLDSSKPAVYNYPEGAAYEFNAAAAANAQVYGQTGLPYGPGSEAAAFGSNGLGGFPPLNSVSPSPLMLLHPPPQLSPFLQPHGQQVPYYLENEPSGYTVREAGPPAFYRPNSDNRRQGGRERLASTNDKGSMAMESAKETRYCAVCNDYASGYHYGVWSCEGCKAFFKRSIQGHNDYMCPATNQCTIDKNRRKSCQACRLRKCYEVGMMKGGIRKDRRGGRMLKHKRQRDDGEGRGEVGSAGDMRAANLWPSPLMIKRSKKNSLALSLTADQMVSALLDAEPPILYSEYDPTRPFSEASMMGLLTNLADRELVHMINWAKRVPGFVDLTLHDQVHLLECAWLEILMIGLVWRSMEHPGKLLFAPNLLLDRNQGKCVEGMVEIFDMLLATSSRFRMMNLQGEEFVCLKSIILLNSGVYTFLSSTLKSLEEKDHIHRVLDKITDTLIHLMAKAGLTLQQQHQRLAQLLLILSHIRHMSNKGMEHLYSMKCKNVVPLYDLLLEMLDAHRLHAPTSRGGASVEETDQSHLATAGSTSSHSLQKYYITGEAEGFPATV
# Sequence of UniProt P04150 (P04150 whole entry, looked up): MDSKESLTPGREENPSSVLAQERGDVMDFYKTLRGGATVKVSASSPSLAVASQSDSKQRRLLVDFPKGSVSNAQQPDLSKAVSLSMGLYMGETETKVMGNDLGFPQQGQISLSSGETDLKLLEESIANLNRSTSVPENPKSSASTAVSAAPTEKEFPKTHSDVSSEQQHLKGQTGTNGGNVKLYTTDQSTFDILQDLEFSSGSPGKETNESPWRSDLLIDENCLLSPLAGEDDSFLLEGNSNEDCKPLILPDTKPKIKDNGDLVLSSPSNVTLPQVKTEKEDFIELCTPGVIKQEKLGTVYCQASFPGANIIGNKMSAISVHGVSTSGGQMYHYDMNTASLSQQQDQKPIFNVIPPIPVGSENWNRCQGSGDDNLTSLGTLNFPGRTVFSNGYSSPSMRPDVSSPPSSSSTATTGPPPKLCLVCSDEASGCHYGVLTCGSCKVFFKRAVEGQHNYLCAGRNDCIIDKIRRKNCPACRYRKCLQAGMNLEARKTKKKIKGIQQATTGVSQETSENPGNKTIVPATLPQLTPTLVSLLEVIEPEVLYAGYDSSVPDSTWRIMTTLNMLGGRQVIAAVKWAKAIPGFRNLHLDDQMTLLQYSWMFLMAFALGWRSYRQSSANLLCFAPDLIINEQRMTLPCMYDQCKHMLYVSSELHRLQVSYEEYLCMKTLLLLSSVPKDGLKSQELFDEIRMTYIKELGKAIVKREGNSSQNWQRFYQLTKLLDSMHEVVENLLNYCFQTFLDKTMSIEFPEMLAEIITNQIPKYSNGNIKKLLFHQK
# Sequence of UniProt P35869 (P35869 whole entry, looked up): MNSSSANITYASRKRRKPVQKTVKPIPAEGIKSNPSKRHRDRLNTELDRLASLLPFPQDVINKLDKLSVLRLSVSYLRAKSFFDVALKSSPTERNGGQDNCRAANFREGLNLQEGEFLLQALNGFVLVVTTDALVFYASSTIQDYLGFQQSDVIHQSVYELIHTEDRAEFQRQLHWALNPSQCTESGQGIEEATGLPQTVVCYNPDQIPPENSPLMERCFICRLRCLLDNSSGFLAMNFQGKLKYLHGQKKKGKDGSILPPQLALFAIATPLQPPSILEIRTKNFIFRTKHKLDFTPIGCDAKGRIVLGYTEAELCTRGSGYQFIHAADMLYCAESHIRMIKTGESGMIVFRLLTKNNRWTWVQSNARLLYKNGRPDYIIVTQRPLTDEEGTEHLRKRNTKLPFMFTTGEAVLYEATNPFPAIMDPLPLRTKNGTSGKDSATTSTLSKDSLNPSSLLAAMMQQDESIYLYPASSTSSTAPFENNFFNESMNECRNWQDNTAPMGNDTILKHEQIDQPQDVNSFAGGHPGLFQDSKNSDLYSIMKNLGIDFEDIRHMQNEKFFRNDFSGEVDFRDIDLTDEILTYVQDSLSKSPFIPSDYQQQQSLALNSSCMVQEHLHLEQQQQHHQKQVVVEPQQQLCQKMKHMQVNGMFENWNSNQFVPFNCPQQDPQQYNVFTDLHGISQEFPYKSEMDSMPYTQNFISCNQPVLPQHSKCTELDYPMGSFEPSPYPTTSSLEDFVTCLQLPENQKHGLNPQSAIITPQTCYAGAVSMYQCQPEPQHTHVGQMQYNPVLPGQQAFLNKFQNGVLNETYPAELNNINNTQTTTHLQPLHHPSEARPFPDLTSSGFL
smiles,measurement,setting,value
CN1CCCC(CN2c3ccccc3Sc3ccccc32)C1 (stereo not drawn),Potency,[1],"inconclusive: 37.6 µM [falling, partial curve, poor fit]"
same,Potency,[2],"inconclusive: 33.5 µM [inhibitor, partial curve, poor fit]"
same,Potency,[3],"inconclusive: 14.1 µM [activator, partial curve, poor fit]"
CCOC(=O)C1=C(COCCN)NC(C)=C(C(=O)OC)C1c1ccccc1Cl (stereo not drawn),Potency,[3],active: 8.91 µM
CCCCCCCCCCCCCCCC(=O)O[C@@H]1CC(C)=C(/C=C/C(C)=C/C=C/C(C)=C/C=C/C=C(C)/C=C/C=C(C)/C=C/C2=C(C)C[C@@H](OC(=O)CCCCCCCCCCCCCCC)CC2(C)C)C(C)(C)C1,Potency,[4],"inconclusive: 26.8 µM [cytotoxic, single point]"
C=C1c2c(Cl)ccc(O)c2C(O)=C2C(=O)[C@]3(O)C(O)=C(C(N)=O)C(=O)[C@@H](N(C)C)[C@@H]3[C@@H](O)[C@H]12,Potency,[5],"inconclusive: 11.5 µM [rising, partial curve, poor fit]"
same,Potency,[6],inconclusive: 9.1 µM [fluorescent]
same,Potency,[7],inactive
CN1[C@@H]2CC[C@H]1CC(OC(c1ccccc1)c1ccccc1)C2 (stereo partly drawn),Potency,[1],"inconclusive: 29.8 µM [falling, single point]"
same,Potency,[3],"inconclusive: 15.8 µM [activator, single point]"
O=C1CSC2(CCN(CCCN3c4ccccc4Sc4ccc(Cl)cc43)CC2)N1,Potency,[1],"inconclusive: 29.8 µM [falling, single point]"
same,Potency,[8],"inconclusive: 23.9 µM [cytotoxic, partial curve]"
same,Potency,[4],"inconclusive: 26.8 µM [cytotoxic, single point]"
same,Potency,[5],active: 21.3 µM
same,Potency,[6],"inconclusive: 4.77 µM [rising, partial curve, poor fit]"
same,Potency,[2],"inconclusive: 33.5 µM [inhibitor, single point]"
same,Potency,[3],"inconclusive: 14.1 µM [activator, partial curve, poor fit]"
CC(C)N1CCN(c2ccc(OC[C@H]3CO[C@](Cn4cncn4)(c4ccc(Cl)cc4Cl)O3)cc2)CC1,Potency,[4],"inconclusive: 10.2 µM [cytotoxic, partial curve, poor fit]"
same,Potency,[2],"inconclusive: 12.7 µM [inhibitor, partial curve, poor fit]"
same,Potency,[9],"inconclusive: 10.1 µM [activator, partial curve]"
same,Potency,[3],active: 5.62 µM
COC(=O)[C@H]1[C@H]2C[C@@H]3c4[nH]c5ccccc5c4CCN3C[C@H]2C[C@@H](OC(=O)c2cc(OC)c(OC)c(OC)c2)[C@@H]1OC,Potency,[1],"inconclusive: 10.6 µM [falling, partial curve, poor fit]"
COc1cc2c(cc1O)CCN[C@]21CS[C@@H]2c3c(OC(C)=O)c(C)c4c(c3[C@H](COC1=O)N1[C@@H]2[C@H]2c3c(cc(C)c(OC)c3O)C[C@@H]([C@@H]1O)N2C)OCO4,Potency,[1],"inconclusive: 0.077 µM [falling, partial curve, poor fit]"
same,Potency,[8],"inconclusive: 42.5 nM [inhibitor, full curve] and inconclusive: 24.5 µM [cytotoxic, partial curve]"
same,Potency,[4],active: 60.1 nM and active: 17.4 nM
same,Potency,[9],"inconclusive: 66.8 nM [activator, full curve, poor fit] and inconclusive: 386 nM [activator, full curve, poor fit]"
O=[N+]([O-])c1c(Cl)cccc1-c1c[nH]cc1Cl,Potency,[4],"inconclusive: 23.9 µM [cytotoxic, partial curve]"
same,Potency,[7],active: 4.77 µM [inconclusive]
same,Potency,[2],"inconclusive: 33.5 µM [inhibitor, single point]"
same,Potency,[9],"inconclusive: 6.68 µM [activator, full curve, poor fit]"
CC1(C)S[C@@H]2[C@H](NC(=O)[C@H](N)c3ccccc3)C(=O)N2[C@H]1C(=O)OCOC(=O)[C@@H]1N2C(=O)C[C@H]2S(=O)(=O)C1(C)C,Potency,[8],"inconclusive: 0.213 µM [rising, full curve, poor fit]"
COc1cc(/C=C/C(=O)N2CCN(CC(=O)N3CCCC3)CC2)cc(OC)c1OC,Potency,[4],"inconclusive: 16.9 µM [rising, partial curve, poor fit]"
CCC(=O)OCC(=O)[C@@]1(OC(=O)CC)[C@H](C)C[C@H]2[C@@H]3CCC4=CC(=O)C=C[C@]4(C)[C@@]3(F)[C@@H](O)C[C@@]21C,Potency,[7],"inconclusive: 0.0848 µM [activator, full curve]"
Cc1nc(NS(=O)(=O)c2ccc(N)cc2)nc(C)c1Br,Potency,[9],inactive
CCOC(=O)CN[C@@H](C(=O)N1CC[C@H]1C(=O)NCc1ccc(/C(N)=N/O)cc1)C1CCCCC1,Potency,[4],inactive
CC(CN1c2ccccc2Sc2ccc(S(=O)(=O)N(C)C)cc21)N(C)C (stereo not drawn),Potency,[5],inactive
same,Potency,[2],"inconclusive: 10.6 µM [inhibitor, partial curve, poor fit]"
same,Potency,[9],"inconclusive: 13.3 µM [activator, partial curve, poor fit]"
